Among all 46,000 compounds or so, about 60 (0.1%) were called active. Roughly 3% stayed inconclusive and do not appear here. The call rests on the fitted dose curve; in most records, active means well fitted inhibition curve with a large enough effect; inconclusive means small, poorly fitted or top-dose-only effect; inactive means no such curve, though single readings can be large or run the other way. This is one part of the list.

A short description of this test: Primary qHTS assay for Inhibitors of ovarian cancer metastasis using an organotypic tumor microenvironment (TME) model. Further: nearly all actives have a fitted effect of over 65% in size.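 On activity change, negative = inhibition: plate controls were DMSO wells for no effect and tomatine positive control wells for full effect.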 The note with it: SKOV3ip1-GFP adhesion/invasion on 3D omental model, fluorescence; series mostly up to 45.8 µM; activity change, negative = inhibition: at the top concentration. The essentials:
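Adhesion/invasion was scored as fixed GFP-labeled SKOV3ip1 cell counts (488/509 nm), normalized to DMSO and tomatine controls. Cancer cells in serum-free medium, with four compound doses (0.36-46 umol/L), sat 2 hr at RT then 16 hr at 37 C on a 48 hr fibroblast/mesothelial/ECM culture.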
Take `CCOC(=O)c1c(C)[nH]c(C)c1S(=O)(=O)N1CCCC(C(=O)Nc2ccc(F)cc2F)C1` (stereo not drawn): the “activity change, negative = inhibition” value was inactive: 4.1%. On the same count and under the same terms, with `COc1cc(C2CC(=O)N(c3ccccc3)C3=C2C(=O)OC3)cc(OC)c1OC` (stereo not drawn) the figure was inactive: 2.77%. Still for that read-out and setting: with `O=C(NC1CCCCCC1)c1ccc2c(c1)sc1nc(-c3ccccc3)cn12` the figure was inactive: -42.6%; with `CCOc1ccc(NC(=O)CSC2=Nc3ccccc3C3=NC(CC(=O)NCc4ccco4)C(=O)N23)cc1` (stereo not drawn), inactive: 13.2%.

On to `COc1ccc(CNC(=O)CC(c2ccc(OC)c(OC)c2)N2Cc3ccccc3C2=O)cc1` (stereo not drawn), for which the compound was called inactive.

`Cc1cc2ccccc2n1CCNC(=O)c1cccc(Cl)c1`: the outcome was inactive.

Regarding `COc1ccccc1CNc1ccc(-c2nc(-c3ccncc3)no2)cc1[N+](=O)[O-]`, the “activity change, negative = inhibition” value is inactive: -7.44%. Take `CCOC(=O)c1sc2ncn(CC(=O)Nc3ccc(C)cc3Br)c(=O)c2c1C`: the compound was classed as inactive. Take `COc1ccc(C)cc1NC(=O)Cn1c(=O)ccc2cc(S(=O)(=O)N3CCCC3)ccc21`: the call was inactive. As for `N#Cc1c[nH]n2c(NC3CCCC3)c(-c3cccc(Cl)c3)nc12`, the “activity change, negative = inhibition” value was inactive: -0.738%. For `Cc1ccc(N(CC(=O)Nc2ccc(C)c(F)c2)S(=O)(=O)c2c(C)n[nH]c2C)cc1`, the “activity change, negative = inhibition” value was inactive: -0.132%. Regarding `CCOc1cc(C(=O)N2CCc3c([nH]c4ccccc34)C2c2ccccc2)cc(OCC)c1OCC` (stereo not drawn), the compound was called inactive.

For `COc1ccc(-c2noc(CSc3nnc(-c4ccncc4)n3-c3ccc(C)cc3)n2)cc1`, the result was inactive. Turning to `COc1cccc(NC(=O)c2cnn(-c3ccccc3)c2-n2cccc2)c1`, the “activity change, negative = inhibition” value was inactive: -22.4%. Regarding `CCOc1ccc(OCC(=O)Nc2nnc3n2CCS3)cc1`, the compound was classed as inactive.

For `COc1ccccc1-n1c(/C=C/c2c(C)n(C)c3ccccc23)nc2ccccc2c1=O`, the outcome was inactive. With `CCc1ccc(Sc2cc(C(=O)NC(C)CC)c3ccccc3n2)cc1` (stereo not drawn), the “activity change, negative = inhibition” value was inactive: -3.58%. Still for that read-out and setting: to `CCOC(=O)C(Cc1c[nH]c2ccccc12)NC(=O)COc1ccc(Cl)c(C)c1` (stereo not drawn) belongs inactive: 3.91%. Consider `COc1cccc(CNC(=O)C2CCC(CNS(=O)(=O)c3ccc(Br)s3)CC2)c1` (stereo not drawn), for which the “activity change, negative = inhibition” value was inactive: 8.72%. `CCOc1nc(NC(=O)NS(=O)(=O)Oc2ccccc2)nc(-c2ccccc2)n1`: the “activity change, negative = inhibition” value is inactive: -0.728%. As for `CCOc1ccc(Sc2cc(C(=O)NCCc3ccccc3)c3ccccc3n2)cc1`, the “activity change, negative = inhibition” value was inactive: 7.86%. The same measure, in the same setting: to `Cc1ccc2c(c1)c1c(c(=O)n(Cc3ccccc3)c(=O)n1CC(=O)NCc1ccccc1Cl)n2C` belongs inactive: -13.8%. In the case of `O=S(=O)(c1ccc2c(c1)CCN2)N1CCCCCC1`, the compound was called inactive. For the compound `Clc1ccc(COC(Cn2ccnc2)c2ccc(Cl)cc2Cl)cc1` (stereo not drawn), the “activity change, negative = inhibition” value is inactive: 11.3%. Regarding `CCC(C)OC(=O)/C(C#N)=C\c1ccc(-c2cccc(C(F)(F)F)c2)o1` (stereo not drawn), the compound was called inactive. As to `COc1ccc(C(C)n2c(C)c3c(C)nnc(C)c3c2C)cc1` (stereo not drawn), the “activity change, negative = inhibition” value was inactive: -6.58%. Turning to `Cc1cccc(C)c1Nc1nc2ccccc2nc1NS(=O)(=O)c1ccccc1`, the call was inactive. Turning to `CN(C(=O)CN1C(=O)CCSc2ccc(S(=O)(=O)N3CCCC3)cc21)c1ccccc1`, the “activity change, negative = inhibition” value is inactive: -4.07%. Regarding `CCc1ccc(NCc2cc3cc(OC)c(OC)cc3n(CC(=O)Nc3cc(C)ccc3C)c2=O)cc1`, the compound was classed as inactive. Still for that read-out and setting: to `O=C(Cn1c(=O)nc(-c2ccccc2)c2ccccc21)NCc1ccc(F)cc1` belongs “inactive”. `CCOC(=O)c1c(C)[nH]c(C)c1S(=O)(=O)NCC(=O)N1CCN(c2cccc(C)c2)C(C)C1` (stereo not drawn): the “activity change, negative = inhibition” value is inactive: 3.62%.

As for `Cc1cccc(NC2=CC(c3cccc(Br)c3)N(c3cccc(C)c3)C2=O)c1` (stereo not drawn), the “activity change, negative = inhibition” value is inactive: -4.04%.

As to `CC1=C(C(=O)N2CCN(c3cccc(C)c3C)CC2)C2(CCCCC2)OC1=O`, the “activity change, negative = inhibition” value was inactive: 6%. Take `COc1ccc(-c2noc(CN(C(C)C)S(=O)(=O)c3ccc(Br)cc3)n2)cc1`: the “activity change, negative = inhibition” value is inactive: 4.52%. For `C=Cc1ccc(CN2C(=O)c3ccccc3Sc3ccc(C(=O)OCc4ccco4)cc32)cc1`, the outcome was inactive. For `O=C(Nc1ccccc1)N(Cc1ccc(F)cc1)c1ccccn1`, the “activity change, negative = inhibition” value is inactive: -4.25%. For the compound `Cc1cc(O)c(C(c2ccccc2)N2CCN(C)CC2)c(=O)n1Cc1ccco1` (stereo not drawn), the compound was called inactive. `COc1ccc(Br)cc1CNC(=O)c1nn(-c2ccc(C)cc2)c(=O)c2c1c1ccccc1n2C`: the call was inactive. Take `CN(C)c1ccc(CNS(=O)(=O)c2ccc3[nH]c4c(c3c2)CCCCC4)cc1`: the “activity change, negative = inhibition” value was inactive: -5.39%. `Cc1nc2ccc(S(=O)(=O)NC(CC(C)C)C(=O)N3CCN(c4ccc(F)cc4)CC3)cc2s1` (stereo not drawn): the “activity change, negative = inhibition” value is inactive: 2.65%. The same measure, in the same setting: to `Cc1ccc(CNC(=O)c2c(O)nc3c(C)cccn3c2=O)cc1` belongs inactive: -4.36%; to `CCN(CC)CCCNC(=O)c1ccc2c(c1)NC(=O)C(CS(=O)(=O)Cc1cccc(Br)c1)N2` (stereo not drawn), inactive: -2.9%; to `CCOC(=O)c1cccc(NC(=O)CCC(=O)N2CC(C)Oc3ccc(C)cc32)c1` (stereo not drawn), inactive: 0.812%. On to `CCOC(=O)c1ccc(NC(=O)c2csnn2)cc1`, for which the “activity change, negative = inhibition” value is inactive: -12.4%. Take `COc1ccc(CCNC(=O)CSc2nnnn2-c2cccc(C(C)=O)c2)cc1OC`: the “activity change, negative = inhibition” value was inactive: 2.55%. Take `Fc1ccc(Cc2cn3cc(-c4ccccc4)nc3s2)cc1`: the call was inactive. In the case of `O=C(C1CC1)N1CCN(c2nc3c(Cl)cccc3s2)CC1`, the result was inactive. For the compound `Cc1ccccc1-c1noc(-c2cccnc2N(C)Cc2ccc(Cl)cc2)n1`, the “activity change, negative = inhibition” value is inactive: -15.8%.

The values above are taken from PubChem BioAssay AID1963576 (National Center for Advancing Translational Sciences (NCATS), 2024).
